Laboratory results published in patent publication US9284335B2, “Substituted pyrido[3,2-e][1,2,4]triazolo[1,5-c]pyrimidines, pyrido[2,3-e][1,2,4]triazolo[1,5-c]pyrimidines and/or [1,2,4]triazolo[1,5-c]pteridines for treatment of central nervous system diseases and disorders” (DART NEUROSCIENCE (CAYMAN) LTD., priority 2012, dated 2016).

Each compound was assayed against full-length recombinant NH-terminal GST tagged human PDE1b enzyme (Homo sapiens, UniProt Q01064) (assay: PDE1b inhibitory assay (IMAP TR-FRET)). Conditions: negative log of half-maximal molar inhibitory concentration; FAM-cAMP 200 nM; reported as bins; read-out: PDE1b (pEC50) (converted).
Type: biochemical

Row | Structure (SMILES) | EC50
1 | COc1ccc(Cn2c(=O)n3ncnc3c3cc(CN4C[C@@H](C)OC[C@H]4C)cnc32)cc1 [Example 64, 9-(((2R,5R)-2,5-Dimethylmorpholino)methyl)-6-(4-methoxybenzyl)pyrido[3,2-e][1,2,4]triazolo[1,5-c]pyrimidin-5(6H)-one] | 100 to 1000 nM
2 | COc1c(F)cc(Cn2c(=O)n3ncnc3c3cc(CN4C[C@@H](C)O[C@@H](C)C4)cnc32)cc1F [Example 107, 6-(3,5-Difluoro-4-methoxybenzyl)-9-(((2S,6R)-2,6-dimethylmorpholino)methyl)pyrido[3,2-e][1,2,4]triazolo[1,5-c]pyrimidin-5(6H)-one] | 100 to 1000 nM
3 | C[C@@H]1CN(Cc2cnc3c(c2)c2ncnn2c(=O)n3Cc2ccc3cnn(C)c3c2)C[C@H](C)O1 [Example 104, 9-(((2S,6R)-2,6-Dimethylmorpholino)methyl)-6-((1-methyl-1H-indazol-6-yl)methyl)pyrido[3,2-e][1,2,4]triazolo[1,5-c]pyrimidin-5(6H)-one] | > 10000 nM
4 | COc1ccc(Cn2c(=O)n3ncnc3c3cc(CN4CCOCC4C)cnc32)c(F)c1F (stereo not drawn) [Example 168, 6-(2,3-Difluoro-4-methoxybenzyl)-9-((3-methylmorpholino)methyl)pyrido[3,2-e][1,2,4]triazolo[1,5-c]pyrimidin-5(6H)-one] | 100 to 1000 nM
5 | COc1ccc(Cn2c(=O)n3ncnc3c3cc(CN4C[C@@H](C)O[C@@H](C)C4)cnc32)c(Cl)c1 [Example 112] | 100 to 1000 nM
6 | COc1ccc(Cn2c(=O)n3ncnc3c3ccc(CN(C)CC4CCOC4)nc32)cc1 (stereo not drawn) [Example 75, 6-(4-Methoxybenzyl)-8-((methyl((THF-3-yl)methyl)amino)methyl)pyrido[3,2-e][1,2,4]triazolo[1,5-c]pyrimidin-5(6H)-one] | 100 to 1000 nM
7 | C[C@@H]1CN(Cc2cnc3c(c2)c2ncnn2c(=O)n3Cc2ccc(F)c(Cl)c2)C[C@H](C)O1 [Example 110] | 100 to 1000 nM
8 | C[C@@H]1CN(Cc2cnc3c(c2)c2ncnn2c(=O)n3Cc2ccc(OC(F)F)cc2)C[C@H](C)O1 [Example 126] | 100 to 1000 nM
9 | COc1ccc(Cn2c(=O)n3ncnc3c3ccc(CN4C[C@@H](C)O[C@@H](C)C4)nc32)cc1 [Example 73, 8-(((2S,6R)-2,6-Dimethylmorpholino)methyl)-6-(4-methoxybenzyl)pyrido[3,2-e][1,2,4]triazolo[1,5-c]pyrimidin-5(6H)-one] | 100 to 1000 nM
10 | COc1ccc(Cn2c(=O)n3ncnc3c3cc(CN4CC5CCC(C4)O5)cnc32)cc1 [Example 43, 9-(8-Oxa-3-azabicyclo[3.2.1]octan-3-ylmethyl)-6-(4-methoxybenzyl)pyrido[3,2-e][1,2,4]triazolo[1,5-c]pyrimidin-5(6H)-one] | 100 to 1000 nM
11 | COc1ccc(Cn2c(=O)n3ncnc3c3nc(CN4CCC(OC)CC4)cnc32)cc1 [Example 165] | 100 to 1000 nM
12 | COc1ccc(Cn2c(=O)n3ncnc3c3cc(CO)cnc32)cc1 [Example 33, 9-(Hydroxymethyl)-6-(4-methoxybenzyl)pyrido[3,2-e][1,2,4]triazolo[1,5-c]pyrimidin-5(6H)-one] | 100 to 1000 nM
13 | COc1ccc(Cn2c(=O)n3ncnc3c3cc(N4C[C@@H](C)O[C@@H](C)C4)cnc32)cc1 [Example 17, 9-((2S,6R)-2,6-Dimethylmorpholino)-6-(4-methoxybenzyl)pyrido[3,2-e][1,2,4]triazolo[1,5-c]pyrimidin-5(6H)-one] | 100 to 1000 nM
14 | COCCN1CCN(Cc2cnc3c(c2)c2ncnn2c(=O)n3Cc2ccc(OC)cc2)CC1 [Example 54, 6-(4-Methoxybenzyl)-9-((4-(2-methoxyethyl)piperazin-1-yl)methyl)pyrido[3,2-e][1,2,4]triazolo[1,5-c]pyrimidin-5(6H)-one] | 1000 to 10000 nM
15 | COc1ccc(Cn2c(=O)n3ncnc3c3cc(Br)cnc32)cc1 [Example 1, 9-Bromo-6-(4-methoxybenzyl)pyrido[3,2-e][1,2,4]triazolo[1,5-c]pyrimidin-5(6H)-one] | 100 to 1000 nM
16 | COc1ccc(Cn2c(=O)n3ncnc3c3ncc(CN4CCCCC4)cc32)cc1 [Example 58, 6-(4-Methoxybenzyl)-8-(piperidin-1-ylmethyl)pyrido[2,3-e][1,2,4]triazolo[1,5-c]pyrimidin-5(6H)-one] | 1000 to 10000 nM
17 | COc1ccc(Cn2c(=O)n3ncnc3c3ccc(CN(C)C4CC4)nc32)cc1 [Example 76, 8-((Cyclopropyl(methyl)amino)methyl)-6-(4-methoxybenzyl)pyrido[3,2-e][1,2,4]triazolo[1,5-c]pyrimidin-5(6H)-one] | 100 to 1000 nM
18 | CCOc1c(F)cc(Cn2c(=O)n3ncnc3c3cc(CN4C[C@@H](C)O[C@@H](C)C4)cnc32)cc1Cl [Example 154, 6-(3-Chloro-4-ethoxy-5-fluorobenzyl)-9-(((2R,6S)-2,6-dimethylmorpholino)methyl)pyrido[3,2-e][1,2,4]triazolo[1,5-c]pyrimidin-5(6H)-one] | > 10000 nM

Row | Structure (SMILES) | EC50
19 | COc1ccc(Cn2c(=O)n3ncnc3c3ncc(Br)cc32)cc1 [Example 2, 8-Bromo-6-(4-methoxybenzyl)pyrido[2,3-e][1,2,4]triazolo[1,5-c]pyrimidin-5(6H)-one] | 1000 to 10000 nM
20 | C[C@@H]1CN(Cc2cnc3c(c2)c2ncnn2c(=O)n3Cc2cccc(I)c2)C[C@H](C)O1 [Example 100, 9-(((2S,6R)-2,6-Dimethylmorpholino)methyl)-6-(3-iodobenzyl)pyrido[3,2-e][1,2,4]triazolo[1,5-c]pyrimidin-5(6H)-one] | 100 to 1000 nM
21 | COc1ccc(Cn2c(=O)n3ncnc3c3nc(N(C)CCN(C)C)cnc32)cc1 [Example 12, 9-((2-(Dimethylamino)ethyl)(methyl)amino)-6-(4-methoxybenzyl)-[1,2,4]triazolo[1,5-c]pteridin-5(6H)-one] | 1000 to 10000 nM
22 | C[C@@H]1CN(Cc2cnc3c(c2)c2ncnn2c(=O)n3Cc2ccc(F)c(F)c2F)C[C@H](C)O1 [Example 149, 9-(((2R,6S)-2,6-Dimethylmorpholino)methyl)-6-(2,3,4-trifluorobenzyl)pyrido[3,2-e][1,2,4]triazolo[1,5-c]pyrimidin-5(6H)-one] | 1000 to 10000 nM
23 | C[C@@H]1CN(Cc2cnc3c(c2)c2ncnn2c(=O)n3Cc2ccc(OC(F)(F)F)cc2)C[C@H](C)O1 [Example 89, 9-(((2S,6R)-2,6-Dimethylmorpholino)methyl)-6-(4-(trifluoromethoxy)benzyl)pyrido[3,2-e][1,2,4]triazolo[1,5-c]pyrimidin-5(6H)-one] | 1000 to 10000 nM
24 | COc1ccc(Cn2c(=O)n3ncnc3c3cc(CN4CCN5C(=O)OCC5C4)cnc32)cc1 (stereo not drawn) [Example 62, 7-((6-(4-Methoxybenzyl)-5-oxo-5,6-dihydropyrido[3,2-e][1,2,4]triazolo[1,5-c]pyrimidin-9-yl)methyl)tetrahydro-1H-oxazolo[3,4-a]pyrazin-3(5H)-one] | < 100 nM
25 | COc1ccc(Cn2c(=O)n3ncnc3c3cc(CN4CCCCC4)cnc32)c(F)c1F [Example 123, 6-(2,3-Difluoro-4-methoxybenzyl)-9-(piperidin-1-ylmethyl)pyrido[3,2-e][1,2,4]triazolo[1,5-c]pyrimidin-5(6H)-one] | 1000 to 10000 nM
26 | C[C@@H]1CN(Cc2cnc3c(c2)c2ncnn2c(=O)n3Cc2ccccc2SC(F)(F)F)C[C@H](C)O1 [Example 109, 9-(((2S,6R)-2,6-Dimethylmorpholino)methyl)-6-(2-((trifluoromethyl)thio)benzyl)pyrido[3,2-e][1,2,4]triazolo[1,5-c]pyrimidin-5(6H)-one] | > 10000 nM
27 | COc1ccc(Cn2c(=O)n3ncnc3c3cc(CN4CCOC(C)(C)C4)cnc32)cc1 [Example 39, 9-((2,2-Dimethylmorpholino)methyl)-6-(4-methoxybenzyl)pyrido[3,2-e][1,2,4]triazolo[1,5-c]pyrimidin-5(6H)-one] | 100 to 1000 nM
28 | COc1ccc(Cn2c(=O)n3ncnc3c3cc(CN4CCC5(CCOCC5)N4C)cnc32)cc1 [Example 44, 6-(4-Methoxybenzyl)-9-((1-methyl-8-oxa-1,2-diazaspiro[4.5]decan-2-yl)methyl)pyrido[3,2-e][1,2,4]triazolo[1,5-c]pyrimidin-5(6H)-one] | < 100 nM
29 | Cc1cc(Cn2c(=O)n3ncnc3c3cc(CN4C[C@@H](C)O[C@@H](C)C4)cnc32)ccc1F [Example 90, 9-(((2S,6R)-2,6-Dimethylmorpholino)methyl)-6-(4-fluoro-3-methylbenzyl)pyrido[3,2-e][1,2,4]triazolo[1,5-c]pyrimidin-5(6H)-one] | 100 to 1000 nM
30 | COc1ccc(Cn2c(=O)n3ncnc3c3nc(Br)cnc32)cc1 [Example 4, 9-Bromo-6-(4-methoxybenzyl)-[1,2,4]triazolo[1,5-c]pteridin-5(6H)-one] | 100 to 1000 nM
31 | COCCN1CCN(c2cnc3c(c2)c2ncnn2c(=O)n3Cc2ccc(OC)cc2)CC1 [Example 13, 6-(4-Methoxybenzyl)-9-(4-(2-methoxyethyl)piperazin-1-yl)pyrido[3,2-e][1,2,4]triazolo[1,5-c]pyrimidin-5(6H)-one] | 100 to 1000 nM
32 | COc1ccc(Cn2c(=O)n3ncnc3c3ccc(CN4CCOCC4)nc32)cc1 [Example 21, 6-(4-Methoxybenzyl)-8-(morpholinomethyl)pyrido[3,2-e][1,2,4]triazolo[1,5-c]pyrimidin-5(6H)-one] | 1000 to 10000 nM
33 | CCC1CN(Cc2cnc3c(c2)c2ncnn2c(=O)n3Cc2ccc(OC)cc2)CCO1 (stereo not drawn) [Example 40, 9-((2-Ethylmorpholino)methyl)-6-(4-methoxybenzyl)pyrido[3,2-e][1,2,4]triazolo[1,5-c]pyrimidin-5(6H)-one] | < 100 nM
34 | COc1ccc(Cn2c(=O)n3ncnc3c3cc(-c4ccc(OC)nc4)cnc32)cc1 [Example 6, 6-(4-Methoxybenzyl)-9-(6-methoxypyridin-3-yl)pyrido[3,2-e][1,2,4]triazolo[1,5-c]pyrimidin-5(6H)-one] | 100 to 1000 nM
35 | Cc1ccc(Cn2c(=O)n3ncnc3c3cc(CN4C[C@@H](C)O[C@@H](C)C4)cnc32)c(C)c1 [Example 159] | 100 to 1000 nM
36 | COc1ccc(Cn2c(=O)n3ncnc3c3cc(CN4CCCOCC4)cnc32)cc1 [Example 49, 9-((1,4-Oxazepan-4-yl)methyl)-6-(4-methoxybenzyl)pyrido[3,2-e][1,2,4]triazolo[1,5-c]pyrimidin-5(6H)-one] | 100 to 1000 nM
